Measured values published in PMC4336329 (PLoS ONE, 2015).
Screen size: about 310,000 compounds; about 14,000 (4.5%) showed an effect of 50% or more. Effects have a minus sign here. Some of the results follow.

The compounds below were run against human ether-à-go-go-related gene (hERG) potassium channel (human, UniProt Q12809) (assay: primary screen, population patch clamp on CHO cells stably expressing hERG).
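Note: peak tail current of the secondary pulse compared with the same well before compound.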

human ether-à-go-go-related gene (hERG) potassium channel, sequence (Q12809 whole entry, looked up): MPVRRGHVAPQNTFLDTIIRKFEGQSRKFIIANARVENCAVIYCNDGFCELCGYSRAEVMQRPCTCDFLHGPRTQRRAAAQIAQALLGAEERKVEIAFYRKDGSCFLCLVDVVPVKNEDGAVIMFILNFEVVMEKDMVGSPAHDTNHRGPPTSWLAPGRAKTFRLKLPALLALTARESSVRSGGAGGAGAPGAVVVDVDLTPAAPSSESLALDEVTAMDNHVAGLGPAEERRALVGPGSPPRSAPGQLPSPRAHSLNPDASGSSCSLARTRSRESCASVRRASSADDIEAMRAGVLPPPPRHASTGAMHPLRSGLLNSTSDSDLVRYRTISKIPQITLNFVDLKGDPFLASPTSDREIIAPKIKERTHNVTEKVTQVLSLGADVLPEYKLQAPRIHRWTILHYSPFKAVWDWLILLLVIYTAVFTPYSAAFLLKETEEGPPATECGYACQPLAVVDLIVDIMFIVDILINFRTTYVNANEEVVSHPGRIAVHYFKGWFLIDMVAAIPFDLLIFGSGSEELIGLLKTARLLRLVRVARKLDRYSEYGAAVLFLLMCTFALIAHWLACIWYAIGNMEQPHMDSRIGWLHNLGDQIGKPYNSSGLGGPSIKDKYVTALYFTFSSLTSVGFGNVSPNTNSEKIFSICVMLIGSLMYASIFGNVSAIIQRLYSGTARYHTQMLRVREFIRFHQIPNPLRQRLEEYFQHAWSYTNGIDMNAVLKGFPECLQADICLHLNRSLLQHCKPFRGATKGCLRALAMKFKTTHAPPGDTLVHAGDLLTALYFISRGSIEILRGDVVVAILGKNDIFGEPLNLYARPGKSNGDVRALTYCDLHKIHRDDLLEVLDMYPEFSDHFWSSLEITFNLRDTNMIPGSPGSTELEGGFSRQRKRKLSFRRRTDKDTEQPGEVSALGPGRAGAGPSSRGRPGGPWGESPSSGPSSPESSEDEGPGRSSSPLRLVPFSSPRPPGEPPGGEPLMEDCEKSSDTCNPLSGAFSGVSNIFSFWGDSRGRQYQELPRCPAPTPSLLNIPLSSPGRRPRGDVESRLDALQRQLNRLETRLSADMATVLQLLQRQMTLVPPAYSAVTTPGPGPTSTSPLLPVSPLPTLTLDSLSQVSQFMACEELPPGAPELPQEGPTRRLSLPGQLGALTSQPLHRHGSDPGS

Row | Structure (SMILES) | hERG current change (%, negative = inhibition) at 10uM
1 | Cc1csc(NC(=O)c2cc(C)nc3ccccc23)n1 | -11.7%
2 | CCSc1nc2nc(C)cc(C)n2n1 | 32.8%
3 | Cc1cc(C)c(NC(=O)CN(c2ccccc2)S(=O)(=O)N(C)C)c(C)c1 | -1.77%
4 | C=C(C)C1CC=C(C)/C(=N\NC(=O)CNc2ccccc2OC)C1 (stereo not drawn) | 14.4%
5 | CCCCN(C(=O)CC1CCCC1)c1c(N)n(CCC)c(=O)[nH]c1=O | -0.622%
6 | Cc1ccc(S(=O)(=O)Nc2ccccc2F)cc1C(=O)NNC(=O)c1ccccc1O | -6.2%
7 | COc1ccc(C(=O)Nc2ccc(NS(=O)(=O)c3ccccc3)cc2)cc1OC | 0.548%
8 | CN(CC(=O)Nc1c(Cl)cccc1Cl)C(=O)CC1OC(=O)c2ccccc21 (stereo not drawn) | -2.8%
9 | Cc1onc(-c2ccccc2Cl)c1C(=O)OCn1nnc2ccccc2c1=O | -5.09%
10 | CC(=O)OCC(=O)Nc1ccc(Br)c(C)c1 | 8.49%
11 | O=C1c2ccccc2NC(c2ccccc2Br)N1CCCN1CCOCC1 (stereo not drawn) | -15%
12 | N#Cc1cccc(S(=O)(=O)Nc2c(NC3CCCCC3)c3ccccc3oc2=O)c1 | -53.9%
13 | O=C(NNC(=O)c1ccccc1F)c1ccc(-n2cncn2)c([N+](=O)[O-])c1 | 7.74%
14 | COc1ccc(-c2nc(CS(=O)CC(=O)NCC3CCCO3)c(C)o2)cc1 (stereo not drawn) | -7.32%
15 | OCC[C@H]1C[C@@H](O)[C@H](O)[C@]2(CCc3ccccc3CO2)O1 | 3.5%
16 | COC(=O)C1CCN(C(=O)COC(=O)C2CCN(S(=O)(=O)c3c(Cl)cccc3Cl)CC2)CC1 | -41.9%
17 | c1ccc(COn2nnc3ccccc32)c(COn2nnc3ccccc32)c1 | -21.3%
18 | Cc1cc(NC(=O)NCC(F)(F)F)no1 | 10.5%
19 | COc1ccc(CN(C)C(=O)CNC(=O)c2ccc3ccccc3c2)c(OC)c1 | -14.1%
20 | Cc1ccccc1NS(=O)(=O)c1ccc(C(=O)N2CCN(c3ccccc3O)CC2)cc1 | 7.73%
21 | O=c1c2ccccc2cnn1Cc1n[nH]c(=S)n1-c1ccccc1 | 30.7%
22 | COc1ccc(Cl)c(Cn2c(NCc3ccccn3)nc3c2c(=O)n(C)c(=O)n3C)c1 | -20.3%

Row | Structure (SMILES) | hERG current change (%, negative = inhibition) at 10uM
23 | Cc1nc(NC(=O)/C=C/c2ccccc2)sc1C(=O)Nc1ccc(Cl)cc1 | 5.27%
24 | Cc1ccc(S(=O)(=O)N2CCCCC2)cc1NC(=O)CSc1ncn[nH]1 | 12%
25 | COc1ccc(-c2nn(-c3ccccc3)cc2C(=O)Nc2ccc(C(=O)O)cc2)cc1 | 6.82%
26 | CC(C)(C)n1nnnc1CN(Cc1ccc(F)cc1)Cc1ccco1 | -7.57%
27 | CCSc1ccc2nnc(-c3cccs3)n2n1 | -34%
28 | Cc1[nH][nH]c(=O)c1C(c1ccc(N(C)C)c(Br)c1)c1c(C)[nH][nH]c1=O | 15.2%
29 | COc1ccc(C(=O)CC(=O)C(=O)Nc2ccccc2OC)cc1 | 0.79%
30 | COc1ccc(NC(=O)c2cnn(-c3ccccc3)c2C)c(OC)c1 | 8.67%
31 | O=C(O)c1cccnc1NC1CCCC1 | 0.89%
32 | Cc1ccc(OCCOc2ccc(Cl)cc2Cl)c([N+](=O)[O-])n1 | -0.813%
33 | O=C(O)c1ccc(-n2nncc2-c2ccccc2)cc1 | 8.58%
34 | COc1ccc(CCNC(=O)c2ccccc2N(C)S(=O)(=O)c2ccccc2)cc1 | -4.4%
35 | CCCC[N+](C)(C)CCC(=O)NC(C)(C)CS(=O)(=O)[O-] | -20.1%
36 | CCOC(=O)c1c(C)[nH]c(C(=O)COC(=O)CCC2CCCC2)c1C | -3.26%
37 | COc1ccc(NC(=O)C2OCCc3ccccc32)c(OC)c1 (stereo not drawn) | 9.36%
38 | C=CCn1c(SCC(=O)Nc2nnc(C)s2)nnc1C1CC1 | 16.5%
39 | CCCNC(=O)c1ccc(N2CCC3(CC2)CC(c2ccccc2)=NO3)c([N+](=O)[O-])c1 | -53%
40 | Cc1cc(NC(=O)c2cc(-c3ccccn3)nc3ccccc23)no1 | -3.66%
41 | CN1CCN(S(=O)(=O)c2ccc(Cl)s2)CC1 | 7.75%
42 | O=C(COc1ccc(Nc2ccccc2)cc1)OCC(=O)N1CCCCC1 | 12.6%
43 | CSCCC1NC(=O)N(CC(=O)N2CCc3ccccc3C2)C1=O (stereo not drawn) | -1.18%
44 | O=C(Nc1cnn(Cc2ccc(Cl)cc2Cl)c1)c1noc2c1CCCC2 | 5.22%

Row | Structure (SMILES) | hERG current change (%, negative = inhibition) at 10uM
45 | Cc1ccc(Cn2nc(C)c(NC(=O)c3noc4c3CCCCC4)c2C)cc1 | -25.1%
46 | CCS(=O)(=O)Nc1cccc(-c2ccc3nnc(C)n3n2)c1 | 12.8%
47 | Cc1cc(S(=O)(=O)Nc2ccc3c(c2)n(C)c(=O)n3C)ccc1F | -0.399%
48 | CCOC(=O)CNC(=O)c1sc2nc(C)cc(C)c2c1N | 15.4%
49 | COc1ccc(CCNC(=O)CSc2nnc(-c3ccccc3)c3ccccc23)cc1OC | -20%
50 | COC(=O)N/N=C/c1cc(C)n(-c2ccc(Br)cc2)c1C | -26.5%
51 | O=C1CSC(c2ccccc2)N1CC12CC3CC(CC(O)(C3)C1)C2 (stereo not drawn) | -11.4%
52 | Cc1cnc(CN(C)C(=O)CC2C(=O)NCCN2Cc2cccc(F)c2F)[nH]1 (stereo not drawn) | 19.2%
53 | CN(C(=O)CSc1nnc(-c2cccnc2)n1-c1ccccc1F)C1CCS(=O)(=O)C1 (stereo not drawn) | 11.7%
54 | O=[N+]([O-])c1ccccc1S(=O)(=O)NCCSCc1ccco1 | -3.56%
55 | O=C(NC(=S)Nc1ccccc1Br)C1CC1 | 8.48%
56 | O=C(c1ccc(F)cc1)c1c[nH]c(C(=O)NCc2ccco2)c1 | -4.69%
57 | COc1ccc(C(=O)NNC(=O)COc2ccc(Cl)cc2)c(OC)c1 | 1.97%
58 | CC(CCc1ccccc1)NC(=O)c1cc2sccc2n1C (stereo not drawn) | -5.35%
59 | CC1=CC2=NC(=O)/C(=C\c3cccn3CCOc3cc(C)ccc3C)C(=N)N2O1 | -6.02%
60 | O=C(Nc1nncs1)C1COc2ccccc2O1 (stereo not drawn) | 19.9%
61 | COc1ccc(OC)c(S(=O)(=O)NCCC(C)C)c1 | 23.9%
62 | Cc1c(C(=O)N2CCC[C@H]2CO)oc2c(F)cccc12 | 13.3%
63 | CCN1C(=O)NC(=O)/C(=C\c2cn(CC(=O)O)c3ccccc23)C1=O | 15.2%
64 | CS(=O)(=O)c1cnc(-c2ccccc2)nc1-c1ccc(Cl)c(Cl)c1 | 21.7%
65 | COC(=O)C1=C(c2ccc(F)cc2F)C[C@@H]2CC[C@H]1N2C(=O)N1CCC(O)CC1 | 2.97%
66 | O=C(Nc1ccccc1-c1ccccc1)C12CC3CC(CC(C3)C1)C2 | 2.1%

Row | Structure (SMILES) | hERG current change (%, negative = inhibition) at 10uM
67 | CCCc1cc(-c2ccc3c(c2)COc2c4ccccc4nn2-3)on1 | -21.4%
68 | Fc1ccc(CSc2ncnc3scc(-c4ccccc4)c23)cc1 | 7.53%
69 | O=C1NC(NS(=O)(=O)c2ccccc2)(C(F)(F)F)C(=O)N1c1cccc(Cl)c1 (stereo not drawn) | 14.9%
70 | CC(=O)O[C@]1(C(C)=O)CC[C@H]2[C@@H]3C=C(Cl)C4=CC(=O)[C@@H]5C[C@@H]5[C@]4(C)[C@H]3CC[C@@]21C | 3.26%
71 | Cc1ccc(S(=O)(=O)n2cc(C=O)c3ccccc32)cc1 | -0.169%
72 | CCCc1cc(C(=O)NC2CCCN(Cc3ccccc3F)C2)no1 (stereo not drawn) | -17.5%
73 | COc1ccc(Nc2nc(NCCN3CCOCC3)nc(Nc3ccc(OC)cc3)n2)cc1 | -78.2%
74 | COc1ccc(/C=C(\C#N)C(=O)N=CN(C)C)cc1 | -0.225%
75 | CS(=O)(=O)Nc1ccc(C2=NN(C(=O)c3cccc(F)c3)C(c3cccs3)C2)cc1 (stereo not drawn) | -53.8%
76 | COCC(C)n1c(C)cc(C(=O)COC(=O)c2c(NC(C)=O)sc(C)c2C)c1C (stereo not drawn) | 3.49%
77 | Cc1ccc(CC(=O)Nc2ccc([N+](=O)[O-])cc2C)cc1 | 0.803%
78 | COc1ccc(-n2c(Cc3cccn3C)nnc2SCC(=O)Nc2cccc(NC(C)=O)c2)cc1 | -16.7%
79 | CC(C)(C)c1ccc(OCc2ccc(C(=O)NN)o2)cc1 | 8.83%
80 | CCN1c2ccccc2-c2nc3ccccc3n2C1c1cccs1 (stereo not drawn) | -5.22%
81 | CCOc1ccc(N2CC(C(=O)Nc3cccc(S(=O)(=O)N4CCCCC4)c3)CC2=O)cc1 (stereo not drawn) | -5.13%
82 | CCCc1[nH]nc2c1C1(C(=O)N(CC)c3ccccc31)C(C#N)=C(N)O2 (stereo not drawn) | -6.38%
83 | CCOc1ccc(N2CC(C(=O)N3CCN(c4ccccn4)CC3)CC2=O)cc1 (stereo not drawn) | -59%
84 | N#Cc1ccsc1NC(=O)C1CCN(C(=O)c2ccc(Cl)cc2)CC1 | -73.2%
85 | Cc1ccc(COC(=O)c2nn(C)c(=O)c3ccccc23)cc1 | -1.73%
86 | O=C1CC(c2cccs2)Cc2nc(NCC3CCCO3)ncc21 (stereo not drawn) | -1.69%
87 | COc1ccc(-c2nc(C#N)c(N3CCN(C(=O)c4ccco4)CC3)o2)cc1OC | 0.504%
